{"source": "PubChem BioAssay AID624296", "about": "(National Center for Advancing Translational Sciences (NCATS), 2012)", "note": "Screen size: about 350,000 compounds; about 9,900 (2.8%) were called active. This list was built around the results that the source calls inconclusive (neither active nor inactive); the mix of calls is not that of the screen. Calls come from the whole dose curve; as a rule, active = well fitted activation curve with a large enough effect; inconclusive = small, poorly fitted or top-dose-only effect; inactive = no such curve, though single readings can be large or run the other way. Potencies of inconclusive entries are left out as doubtful fits. Potency is the fitted concentration of half-maximal effect; tags give direction and shape of the fitted curve."}
{"test": "A quantitative high throughput screen for small molecules that induce DNA re-replication in MCF 10a normal breast cells; note: nearly all actives have a fitted effect of over 50% in size; for activity, positive = re-replication: % of control where 0% means no effect.", "details": "MCF 10A DNA re-replication, Hoechst nuclear intensity, 48 h; activity, positive = re-replication: at 46.1 µM (top of the series)"}
{"smiles": "Cc1nn(-c2ccccc2)c(N2CCCC2)c1/C=N/NC(=O)c1cc(-c2cccnc2)nc2ccccc12", "Potency": "active: 13 µM"}
{"smiles": "O=C(O)C(Oc1ccc2cc(-c3ccc(Cl)cc3)c(=O)oc2c1)c1ccccc1", "note": "(centres undefined)", "Potency": "inconclusive [activator, partial curve, poor fit]"}
{"smiles": "COc1cccc(N(C(=O)c2snc(C(N)=O)c2N)C(C(=O)NCC2CCCO2)c2ccc(F)cc2)c1", "note": "(centres undefined)", "Potency": "inconclusive [activator, single point]"}
{"smiles": "COc1ccc(NC(=O)c2cc(-c3ccccn3)nc3ccccc23)cc1S(=O)(=O)N(C)C", "Potency": "inconclusive [activator, single point]"}
{"smiles": "N#Cc1c(N2CCOCC2)nc(-c2ccco2)c2c1CCCC2", "Potency": "inconclusive [activator, partial curve, poor fit]"}
{"smiles": "COC(=O)C1=CO[C@@H](O[C@@H]2O[C@H](CO)[C@@H](O)[C@H](O)[C@H]2O)C2C1C=C[C@@]2(O)CO", "note": "(some centres undefined)", "Potency": "inconclusive [activator, full curve, poor fit]"}
{"smiles": "Cc1cc2ccccc2n1CCNC(=O)C1CCCC1", "activity, positive = re-replication": "inactive: -0.919%"}
{"smiles": "O=C(COCC(=O)Nc1cccc(C(F)(F)F)c1)Nc1cccc(C(F)(F)F)c1", "Potency": "inconclusive [activator, single point]"}
{"smiles": "Cc1ccccc1C(=O)N1CCN(c2ncnc3c2cnn3-c2ccccc2)CC1", "Potency": "inconclusive [activator, partial curve, poor fit]"}
{"smiles": "COc1ccc(-n2c(CCc3ccccc3)nnc2SCC(=O)c2ccccc2)cc1", "Potency": "inconclusive [activator, single point]"}
{"smiles": "FC(F)(F)c1cccc(NC(=S)Nc2cccc(Cl)c2)c1", "Potency": "inconclusive [activator, single point]"}
{"smiles": "CCOC(=O)N1CCC(N2Cc3cccc(C(=O)Nc4ccc(CC)cc4)c3C2=O)CC1", "activity, positive = re-replication": "inactive: 9.08%"}
{"smiles": "O=C(COc1ccc2c3c(c(=O)oc2c1)CCCC3)NCc1cccnc1", "activity, positive = re-replication": "inactive: -1.84%"}
{"smiles": "COc1ccc(S(=O)(=O)N(C)C[C@H]2Oc3c(cccc3N(C)C)C(=O)N([C@H](C)CO)C[C@@H]2C)cc1", "activity, positive = re-replication": "inactive: 3.18%"}
{"smiles": "O=c1cc(O)c2c(=O)n(-c3ccccc3)c3c(c2o1)CCCCCC3", "Potency": "inconclusive [activator, single point]"}
{"smiles": "O=c1cnc2ccccc2n1Cc1ccc(Br)cc1", "activity, positive = re-replication": "inactive: 13.7%"}
{"smiles": "COCCn1c(=O)[nH]c2cc(C(=O)N3CCN(c4cccc(Cl)c4)CC3)ccc2c1=O", "Potency": "inconclusive [activator, full curve]"}
{"smiles": "CCOc1cc(/C=N/NC(=O)c2cc(-c3cccnc3)nc3ccccc23)ccc1O", "activity, positive = re-replication": "inactive: 14.4%"}
{"smiles": "CCN(CC)C(=O)CSc1ncnc2sc(-c3ccccc3)cc12", "Potency": "inconclusive [activator, partial curve, poor fit]"}
{"smiles": "COc1ccc(N(CC(=O)Nc2cccc3ccccc23)S(C)(=O)=O)cc1", "Potency": "inconclusive [activator, full curve, poor fit]"}
{"smiles": "Cc1ccc(S(=O)(=O)N2CCCC2C(=O)Nc2nc3ccccc3s2)cc1", "note": "(centres undefined)", "Potency": "inconclusive [activator, single point]"}
{"smiles": "CCOc1cc(/C=N/Nc2ccc(C(=O)O)cc2)ccc1OC(=O)c1ccccc1C", "Potency": "inconclusive [activator, single point]"}
{"smiles": "Cc1nc(-c2nc(CC(=O)NNC(=O)c3ccc(Cl)cc3)cs2)cs1", "activity, positive = re-replication": "inactive: 0.141%"}
{"smiles": "COc1ccc(-n2nc(C(=O)NCC(=O)NCCc3ccc(OC)c(OC)c3)c3ccccc3c2=O)cc1", "activity, positive = re-replication": "inactive: 4.05%"}
{"smiles": "Cc1cccc(NC(=O)CCN2CCN(C/C=C/c3ccccc3)CC2)c1", "Potency": "inconclusive [activator, single point]"}
{"smiles": "COc1ncnc2c1N[C@@](C)(O)c1c(F)c(F)c(F)c(F)c1S2", "activity, positive = re-replication": "inactive: 8.01%"}
{"smiles": "CC1(C)CC[C@]2(C(=O)O)CC[C@]3(C)C(=CCC4[C@@]5(C)CC[C@H](O)C(C)(C)C5[C@H](O)C[C@]43C)[C@@H]2C1", "note": "(some centres undefined)", "Potency": "inconclusive [activator, single point]"}
{"smiles": "CCCOC(=O)c1ccc(Oc2c(-c3ccc(OC)cc3O)n[nH]c2C)cc1", "Potency": "inconclusive [activator, single point]"}
{"smiles": "N#Cc1c(/N=C/N2CCOCC2)sc2c1CCCCC2", "activity, positive = re-replication": "inactive: 1.75%"}
{"smiles": "O=C(Oc1c(-c2ccccc2)c(=O)n2c3c(cccc13)CC2)c1ccco1", "Potency": "inconclusive [activator, single point]"}
{"smiles": "Cc1cccc(-n2c(O)c(C=NCc3ccccn3)c3ccccc3c2=O)c1", "activity, positive = re-replication": "inactive: -1.05%"}
{"smiles": "O=C(/C(=C(\\[O-])c1ccccc1)[n+]1ccc2ccccc2c1)c1ccccc1", "Potency": "inconclusive [activator, single point]"}
{"smiles": "O=C(/C=C/c1cccc([N+](=O)[O-])c1)NCCSCc1ccc(Cl)cc1", "Potency": "inconclusive [activator, partial curve, poor fit]"}
{"smiles": "Cc1ccc(NC(=O)c2ccc(Cl)nc2)cc1", "Potency": "inconclusive [activator, single point]"}
{"smiles": "CCOc1ccc(S(=O)(=O)N2CCCCC2)c2ccccc12", "Potency": "inconclusive [activator, partial curve]"}
{"smiles": "Cc1ccc(C(CNC(=O)c2ccc(Br)o2)N2CCN(C)CC2)cc1", "note": "(centres undefined)", "activity, positive = re-replication": "inactive: 1.34%"}
{"smiles": "COc1ccc(C(CC(=O)c2ccc(O)cc2)S(=O)(=O)c2ccc(C)cc2)cc1", "note": "(centres undefined)", "activity, positive = re-replication": "inactive: 6.64%"}
{"smiles": "O=C(N/N=C/c1cc(Br)cc([N+](=O)[O-])c1O)c1ccc(NC(=O)c2ccc(F)cc2)cc1", "activity, positive = re-replication": "inactive: 5.99%"}
{"smiles": "CC(C)(C)NC(=O)C[C@H]1C[C@H](C(=O)N2CCCCC2)[C@@]2(C)c3[nH]c4ccc(Cl)cc4c3CCN2C1=O", "Potency": "inconclusive [activator, single point]"}
{"smiles": "COc1ccc(-c2cc(C(=O)Nc3ccc(S(N)(=O)=O)cc3)c3ccccc3n2)cc1OC", "Potency": "active: 8.2 µM"}
{"smiles": "CC12CC(NC(=O)N1c1cccc(C(=O)N3CCN(c4ccccc4)CC3)c1)c1ccccc1O2", "note": "(centres undefined)", "Potency": "inconclusive [activator, full curve, poor fit]"}
{"smiles": "COc1ccc(-n2c(CNc3ccc(C)cc3)nnc2SCC(=O)Nc2nc(-c3ccccc3)cs2)cc1", "Potency": "active: 14.6 µM"}
{"smiles": "O=C(CSc1nnc(-c2cccc(F)c2)o1)N1CCCC1", "activity, positive = re-replication": "inactive: -0.771%"}
{"smiles": "Brc1ccc2ncnc(Nc3ccc(N4CCOCC4)cc3)c2c1", "Potency": "inconclusive [activator, single point]"}
{"smiles": "Cc1ccccc1Nc1nnc(C)c(=O)[nH]1", "activity, positive = re-replication": "inactive: -1.32%"}
{"smiles": "Cn1ccc2cc(NC(=O)Nc3cccnc3)ccc21", "Potency": "inconclusive [activator, single point]"}
{"smiles": "COc1ccc(C2C(C(=O)Nc3cccc(C)n3)CCC(=O)N2c2ccc(OC)cc2)cc1", "note": "(centres undefined)", "activity, positive = re-replication": "inconclusive: 127% [activator]"}
{"smiles": "O=C(CNC(=O)c1ccc2ccccc2c1)Nc1ncccc1O", "activity, positive = re-replication": "inactive: 0.181%"}
{"smiles": "O=C(Nc1ccc(Br)cc1)/C(=C/c1cccc([N+](=O)[O-])c1)NC(=O)C1CCCCC1", "activity, positive = re-replication": "inactive: 18.1%"}
{"smiles": "CNc1nc(Cl)c(SC)c(NCc2cccc(OC)c2)n1", "Potency": "inconclusive [activator, single point]"}
{"smiles": "COc1ccccc1N1CCN(Cc2nc(N)nc(Nc3ccc(C)cc3)n2)CC1", "Potency": "inconclusive [activator, partial curve, poor fit]"}
{"smiles": "CC(=O)Nc1ccc(/C=C(\\C#N)C(=O)NC2CCCCC2)cc1", "activity, positive = re-replication": "inactive: 7.49%"}
{"smiles": "Cc1ncc(CO)c2c1Oc1nc(-c3ccccc3)nc(SCC(=O)N3CCOCC3)c1C2", "activity, positive = re-replication": "inactive: -0.0045%"}
{"smiles": "CN1C(=O)/C(=C\\c2ccc(-c3ccccc3)o2)SC1=S", "Potency": "inconclusive [activator, partial curve, poor fit]"}
{"smiles": "Cc1cc(OCc2cc(C(=O)NC(C)c3c(C)nn(C)c3C)no2)cc(C)c1Cl", "note": "(centres undefined)", "Potency": "inconclusive [activator, single point]"}
{"smiles": "COC(=O)c1[nH]c2cc(OC)ccc2c1NC(=O)c1c(F)cccc1F", "Potency": "inconclusive [activator, partial curve, poor fit]"}
{"smiles": "CC(C)C(NC(=O)c1c(F)cccc1F)C(=O)N1CCN(S(=O)(=O)/C=C/c2ccccc2)CC1", "note": "(centres undefined)", "activity, positive = re-replication": "inactive: 17.1%"}
{"smiles": "CCNc1nc(NCC)nc(N/N=C/c2ccc(O)c(OC)c2)n1", "activity, positive = re-replication": "inactive: -0.389%"}
{"smiles": "COc1ccc(Cc2nnc(NCCO)[nH]c2=O)cc1", "activity, positive = re-replication": "inactive: 0.504%"}
{"smiles": "COc1ccc(-c2c(-c3ccc(OC)nc3)c3ccccc3n2C)cc1", "Potency": "active: 5.17 µM"}
{"smiles": "Nc1nc(-c2ccccn2)nc(N)c1Cc1ccc(Cl)cc1Cl", "Potency": "inconclusive [activator, partial curve, poor fit]"}
{"smiles": "O=S(=O)(c1ccccc1F)N1CCN(CCc2ccccc2)CC1", "Potency": "inconclusive [activator, partial curve, poor fit]"}
{"smiles": "CC(=O)c1cc(C(=O)N2CCc3c([nH]c4ccccc34)C2C2CCCCC2)[nH]n1", "note": "(centres undefined)", "Potency": "active: 1.46 µM"}
{"smiles": "CCc1nc2ccccc2n1CCC(C)C", "Potency": "inconclusive [activator, partial curve, poor fit]"}
{"smiles": "Cc1ccc(OCCN2CCN(C(=O)CCC(=O)Nc3nnc(C(C)C)s3)CC2)cc1", "activity, positive = re-replication": "inactive: 0.159%"}
{"smiles": "CCOC(=O)Cn1nc(C)c(NC(=O)COc2ccccc2)c1C", "Potency": "inconclusive [activator, partial curve, poor fit]"}
{"smiles": "COc1cc(CNCc2ccccn2)ccc1OCc1cccc(Cl)c1", "Potency": "active: 13 µM"}
{"smiles": "Cc1c(C)n(CC(O)CN2C(=O)c3ccccc3S2(=O)=O)c2ccccc12", "note": "(centres undefined)", "Potency": "inconclusive [activator, partial curve, poor fit]"}
{"smiles": "OCc1nc2ccccc2n1CC(O)Cn1ccc2ccccc21", "note": "(centres undefined)", "activity, positive = re-replication": "inactive: 5.5%"}
